# From the supplement of paper PMC8728848
# This is one part of the list.
# Key:
# Test in all cases: glycan array binding signal (z-score within array); higher = stronger binding
# Settings in all cases: glycan notation: IUPAC condensed, linker removed
# Gal(a1-6)Glc = target: Gal(a1-6)Glc
# Outline: (§1)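 From the Consortium for Functional Glycomics database, 3228 arrays were curated, keeping only those whose protein sequence was available. Binding is given as a within-array Z-score averaged across arrays sharing a protein sequence and across linkers. Negative Z-scores can be read as non-binding.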
# Gal(b1-2)Gal = target: Gal(b1-2)Gal
# Outline: as §1
# Gal(b1-3)Gal = target: Gal(b1-3)Gal
# Outline: as §1
# Gal(b1-3)Gal(b1-4)GlcNAc = target: Gal(b1-3)Gal(b1-4)GlcNAc
# Outline: as §1
# Gal(b1-3)GalNAc = target: Gal(b1-3)GalNAc
# Outline: as §1
# [1] = target: Gal(b1-3)GalNAc(a1-3)[Fuc(a1-2)]Gal(b1-4)Glc
# Outline: as §1
# [2] = target: Gal(b1-3)GalNAc(a1-3)[Fuc(a1-2)]Gal(b1-4)GlcNAc
# Outline: as §1
# Gal(b1-3)GalNAc(b1-3)Gal = target: Gal(b1-3)GalNAc(b1-3)Gal
# Outline: as §1
# [3] = target: Gal(b1-3)GalNAc(b1-3)Gal(a1-4)Gal(b1-4)Glc
# Outline: as §1
# [4] = target: Gal(b1-3)GalNAc(b1-4)Gal(b1-4)Glc
# Outline: as §1
# [5] = target: Gal(b1-3)GalNAc(b1-4)[Neu5Ac(a2-3)]Gal(b1-4)Glc
# Outline: as §1
# Gal(b1-3)GlcNAc = target: Gal(b1-3)GlcNAc
# Outline: as §1
# [6] = target: Gal(b1-3)GlcNAc(a1-3)Gal(b1-4)GlcNAc
# Outline: as §1
# [7] = target: Gal(b1-3)GlcNAc(a1-6)Gal(b1-4)GlcNAc
# Outline: as §1
# Gal(b1-3)GlcNAc(b1-2)Man = target: Gal(b1-3)GlcNAc(b1-2)Man
# Outline: as §1
# [8] = target: Gal(b1-3)GlcNAc(b1-2)Man(a1-3)[Gal(b1-3)GlcNAc(b1-2)Man(a1-6)]Man(b1-4)GlcNAc(b1-4)GlcNAc
# Outline: as §1
# [9] = target: Gal(b1-3)GlcNAc(b1-2)Man(a1-3)[Gal(b1-3)GlcNAc(b1-2)Man(a1-6)]Man(b1-4)GlcNAc(b1-4)[Fuc(a1-6)]GlcNAc
# Outline: as §1
# [10] = target: Gal(b1-3)GlcNAc(b1-2)Man(a1-3)[GlcNAc(b1-4)][Gal(b1-3)GlcNAc(b1-2)Man(a1-6)]Man(b1-4)GlcNAc(b1-4)GlcNAc
# Outline: as §1
# [11] = target: Gal(b1-3)GlcNAc(b1-2)[Gal(b1-3)GlcNAc(b1-6)]Man(a1-6)[Gal(b1-3)GlcNAc(b1-2)Man(a1-3)]Man(b1-4)GlcNAc(b1-4)GlcNAc
# Outline: as §1
# [12] = target: Gal(b1-3)GlcNAc(b1-3)Gal(b1-3)GlcNAc
# Outline: as §1
# [13] = target: Gal(b1-3)GlcNAc(b1-3)Gal(b1-4)Glc
# Outline: as §1
# [14] = target: Gal(b1-3)GlcNAc(b1-3)Gal(b1-4)GlcNAc
# Outline: as §1
# [15] = target: Gal(b1-3)GlcNAc(b1-3)Gal(b1-4)GlcNAc(b1-2)Man(a1-3)[Gal(b1-3)GlcNAc(b1-3)Gal(b1-4)GlcNAc(b1-2)Man(a1-6)]Man(b1-4)GlcNAc(b1-4)GlcNAc
# Outline: as §1
# [16] = target: Gal(b1-3)GlcNAc(b1-3)Gal(b1-4)GlcNAc(b1-2)[Gal(b1-3)GlcNAc(b1-3)Gal(b1-4)GlcNAc(b1-6)]Man(a1-6)[Gal(b1-3)GlcNAc(b1-3)Gal(b1-4)GlcNAc(b1-2)Man(a1-3)]Man(b1-4)GlcNAc(b1-4)[Fuc(a1-6)]GlcNAc
# Outline: as §1
# [17] = target: Gal(b1-3)GlcNAc(b1-3)Gal(b1-4)GlcNAc(b1-3)Gal(b1-4)GlcNAc(b1-2)[Gal(b1-3)GlcNAc(b1-3)Gal(b1-4)GlcNAc(b1-3)Gal(b1-4)GlcNAc(b1-6)]Man(a1-6)[Gal(b1-3)GlcNAc(b1-3)Gal(b1-4)GlcNAc(b1-3)Gal(b1-4)GlcNAc(b1-2)Man(a1-3)]Man(b1-4)GlcNAc(b1-4)[Fuc(a1-6)]GlcNAc
# Outline: as §1
# [18] = target: Gal(b1-3)GlcNAc(b1-3)Gal(b1-4)GlcNAc(b1-6)[Gal(b1-3)GlcNAc(b1-3)]Gal(b1-4)Glc
# Outline: as §1
# [19] = target: Gal(b1-3)GlcNAc(b1-3)Gal(b1-4)[Fuc(a1-3)]GlcNAc
# Outline: as §1
# [20] = target: Gal(b1-3)GlcNAc(b1-3)Gal(b1-4)[Fuc(a1-3)]GlcNAc(b1-6)[Gal(b1-3)GlcNAc(b1-3)]Gal(b1-4)Glc
# Outline: as §1
# [21] = target: Gal(b1-3)GlcNAc(b1-3)GalNAc
# Outline: as §1
# [22] = target: Gal(b1-3)GlcNAc(b1-6)Gal(b1-4)GlcNAc
# Outline: as §1
# [23] = target: Gal(b1-3)GlcNAc(b1-6)GalNAc
# Outline: as §1
# [24] = target: Gal(b1-3)GlcNAc(b1-6)[Gal(b1-3)]GalNAc
# Outline: as §1
# Gal(b1-3)GlcNAc6S = target: Gal(b1-3)GlcNAc6S
# Outline: as §1
# [25] = target: Gal(b1-3)[Fuc(a1-4)]GlcNAc
# Outline: as §1
# [26] = target: Gal(b1-3)[Fuc(a1-4)]GlcNAc(b1-2)Man
# Outline: as §1
# [27] = target: Gal(b1-3)[Fuc(a1-4)]GlcNAc(b1-2)Man(a1-3)[Gal(b1-3)[Fuc(a1-4)]GlcNAc(b1-2)Man(a1-6)]Man(b1-4)GlcNAc(b1-4)[Fuc(a1-6)]GlcNAc
# Outline: as §1
# [28] = target: Gal(b1-3)[Fuc(a1-4)]GlcNAc(b1-3)Gal(b1-3)[Fuc(a1-4)]GlcNAc
# Outline: as §1
# [29] = target: Gal(b1-3)[Fuc(a1-4)]GlcNAc(b1-3)Gal(b1-4)[Fuc(a1-3)]GlcNAc
# Outline: as §1
# [30] = target: Gal(b1-3)[Fuc(a1-4)]GlcNAc(b1-6)GalNAc
# Outline: as §1
# [31] = target: Gal(b1-3)[GlcNAc(b1-6)]GalNAc
# Outline: as §1
# [32] = target: Gal(b1-3)[Neu5Ac(a2-6)]GalNAc
# Outline: as §1
# [33] = target: Gal(b1-3)[Neu5Ac(a2-6)]GlcNAc(b1-4)Gal(b1-4)Glc
# Outline: as §1
# [34] = target: Gal(b1-3)[Neu5Ac(b2-6)]GalNAc
# Outline: as §1
# Gal(b1-4)Gal = target: Gal(b1-4)Gal
# Outline: as §1
# [35] = target: Gal(b1-4)GalNAc(a1-3)[Fuc(a1-2)]Gal(b1-4)GlcNAc
# Outline: as §1
binder,measurement,setting,value
SSR2 (Sclerotium rolfsii) (protein) MVYKITVRVYQTNPDAFFHPVEKTVWKYANGGTWSITDDQHVLTMGGSGTSGTLRFHADNGESFTATFGVHNYKRWCDIVTNLAADETGMVINQQYYSQKNREEARERQLSNYQVKNAKGRNFQIVYTEAEGNDLHANLIIG,glycan array binding signal (z-score),Gal(a1-6)Glc,-0.281
same,glycan array binding signal (z-score),Gal(b1-2)Gal,-0.253
same,glycan array binding signal (z-score),Gal(b1-3)Gal,-0.283
same,glycan array binding signal (z-score),Gal(b1-3)Gal(b1-4)GlcNAc,-0.282
same,glycan array binding signal (z-score),Gal(b1-3)GalNAc,1.48
same,glycan array binding signal (z-score),[1],3.93
same,glycan array binding signal (z-score),[2],2.96
same,glycan array binding signal (z-score),Gal(b1-3)GalNAc(b1-3)Gal,-0.275
same,glycan array binding signal (z-score),[3],-0.284
same,glycan array binding signal (z-score),[4],-0.292
same,glycan array binding signal (z-score),[5],-0.295
same,glycan array binding signal (z-score),Gal(b1-3)GlcNAc,-0.273
same,glycan array binding signal (z-score),[6],-0.278
same,glycan array binding signal (z-score),[7],-0.287
same,glycan array binding signal (z-score),Gal(b1-3)GlcNAc(b1-2)Man,-0.285
same,glycan array binding signal (z-score),[8],-0.281
same,glycan array binding signal (z-score),[9],-0.274
same,glycan array binding signal (z-score),[10],-0.277
same,glycan array binding signal (z-score),[11],-0.286
same,glycan array binding signal (z-score),[12],-0.279
same,glycan array binding signal (z-score),[13],-0.287
same,glycan array binding signal (z-score),[14],-0.28
same,glycan array binding signal (z-score),[15],-0.271
same,glycan array binding signal (z-score),[16],-0.221
same,glycan array binding signal (z-score),[17],-0.219
same,glycan array binding signal (z-score),[18],-0.289
same,glycan array binding signal (z-score),[19],-0.292
same,glycan array binding signal (z-score),[20],-0.286
same,glycan array binding signal (z-score),[21],-0.28
same,glycan array binding signal (z-score),[22],-0.291
same,glycan array binding signal (z-score),[23],-0.282
same,glycan array binding signal (z-score),[24],1.3
same,glycan array binding signal (z-score),Gal(b1-3)GlcNAc6S,-0.269
same,glycan array binding signal (z-score),[25],-0.283
same,glycan array binding signal (z-score),[26],-0.286
same,glycan array binding signal (z-score),[27],-0.243
same,glycan array binding signal (z-score),[28],-0.272
same,glycan array binding signal (z-score),[29],-0.285
same,glycan array binding signal (z-score),[30],-0.288
same,glycan array binding signal (z-score),[31],2.08
same,glycan array binding signal (z-score),[32],0.059
same,glycan array binding signal (z-score),[33],-0.276
same,glycan array binding signal (z-score),[34],-0.169
same,glycan array binding signal (z-score),Gal(b1-4)Gal,-0.288
same,glycan array binding signal (z-score),[35],-0.279
